Laboratory results from paper PMC11995724, “Antibiotic target discovery by integrated phenotypic and activity-based profiling of electrophilic fragments” (Cell chemical biology, 2025).
Hit rate of the full screen: of about 3,200 compounds, about 110 (3.4%) showed an effect of 50% or more. Some of the results follow.

tested on: T1, V. cholerae SAD30; design: species or system S. aureus MSSA476 (TSB) or V. cholerae SAD30 (LB); 384-well bacterial growth screen at 25 uM, OD600 relative to DMSO control; conditions: relative growth, OD600, LB; 25 µM; inhibitor
T1 construct: SAD30

Row | Compound | % of control remaining
1 | CC(Cl)C(=O)N1CCCC1c1nc(-c2ccccc2)c(C(C)C)o1 (stereo not shown) [7-H11, 2-chloro-1-{2-[4-phenyl-5-(propan-2-yl)-1,3-oxazol-2-yl]pyrrolidin-1-yl}propan-1-one] | 73.8807%
2 | Cn1ncc2ccc(CNC(=O)N3CCSSCC3)cc21 [10-A20, N-[(1-methyl-1H-indazol-6-yl)methyl]-1,2,5-dithiazepane-5-carboxamide] | 103.799%
3 | C=CC(=O)NC(c1nc(C)cs1)C1CC1 (stereo not shown) [3-D21, N-[cyclopropyl(4-methyl-1,3-thiazol-2-yl)methyl]prop-2-enamide] | 100.912%
4 | Cc1ccc(CNC(=O)c2ccccc2NC(=O)CCl)cc1 [4-H21, 2-(2-chloroacetamido)-N-[(4-methylphenyl)methyl]benzamide] | 106.966%
5 | N#Cc1c(NC(=O)CCl)oc(-c2ccco2)c1-c1ccco1 [5-D10, 2-chloro-N-[4'-cyano-2'-(furan-2-yl)-[2,3'-bifuran]-5'-yl]acetamide] | 75.8222%
6 | CC(Cl)C(=O)Nc1cccc(C#N)c1 (stereo not shown) [5-B10, 2-chloro-N-(3-cyanophenyl)propanamide] | 95.8285%
7 | O=C(CCl)Nc1ccc2oc3ccccc3c2c1 [6-N06, 2-chloro-N-{8-oxatricyclo[7.4.0.0,2,7]trideca-1(9),2(7),3,5,10,12-hexaen-4-yl}acetamide] | 89.1838%
8 | CC(Cl)C(=O)Nc1ccc(C2CC(=O)NC(=O)N2)cc1 (stereo not shown) [5-D19, 2-chloro-N-[4-(2,6-dioxo-1,3-diazinan-4-yl)phenyl]propanamide] | 97.5097%
9 | C=CC(=O)N1CCC(c2ccc(OC)cc2)C1 (stereo not shown) [1-N16, 1-[3-(4-methoxyphenyl)pyrrolidin-1-yl]prop-2-en-1-one] | 95.1914%
10 | COC1(OC)CCOCC1NC(=O)CCl (stereo not shown) [7-D10, 2-chloro-N-(4,4-dimethoxyoxan-3-yl)acetamide] | 84.5862%
11 | CC(Cl)C(=O)N1C2CCC1CC(c1ccnn1C)C2 (stereo not shown) [7-O15, 2-chloro-1-[3-(1-methyl-1H-pyrazol-5-yl)-8-azabicyclo[3.2.1]octan-8-yl]propan-1-one] | 78.2422%
12 | CC(Cl)C(=O)NC1CCCCC1n1cccn1 (stereo not shown) [7-F17, 2-chloro-N-[2-(1H-pyrazol-1-yl)cyclohexyl]propanamide] | 75.731%
13 | COc1ccc(CN(C)C(=O)CCl)cc1F [4-F03, 2-chloro-N-[(3-fluoro-4-methoxyphenyl)methyl]-N-methylacetamide] | 110.244%
14 | C=CC(=O)N1CCCn2cccc2C12CCOCC2 [1-A22, 1-{2',3',4',5'-tetrahydrospiro[oxane-4,1'-pyrrolo[1,2-a][1,4]diazepin]-2'-yl}prop-2-en-1-one] | 107.922%
15 | C=CC(=O)Nc1cccc(NS(=O)(=O)C2CC2)c1 [3-D16, N-(3-cyclopropanesulfonamidophenyl)prop-2-enamide] | 95.6185%
16 | C=CC(=O)N1CCC(c2nc(C(=O)O)co2)CC1 [2-K03, 2-[1-(prop-2-enoyl)piperidin-4-yl]-1,3-oxazole-4-carboxylic acid] | 108.723%
17 | CSc1cccc(NC(=O)CCl)c1 [4-H10, 2-chloro-N-[3-(methylsulfanyl)phenyl]acetamide] | 90.9209%
18 | O=C1CCCc2cc(C(=O)CCl)ccc2N1 [10-M20, 7-(2-chloroacetyl)-2,3,4,5-tetrahydro-1H-1-benzazepin-2-one] | 94.6035%
19 | COc1ccc(NC(=O)CCl)c([N+](=O)[O-])c1 [4-I21, 2-chloro-N-(4-methoxy-2-nitrophenyl)acetamide] | 107.311%
20 | N#CC(=Cc1cccc(F)c1)C(=O)Nc1cc(Cl)ccc1Cl [9-P03, 2-cyano-N-(2,5-dichlorophenyl)-3-(3-fluorophenyl)prop-2-enamide] | 92.2502%
21 | CCN(C(=O)CCl)c1ccccc1 [6-E15, 2-chloro-N-ethyl-N-phenylacetamide] | 87.8188%
22 | O=C(CCl)NCc1ccc(N2CCOCC2)nc1 [6-E22, 2-chloro-N-{[6-(morpholin-4-yl)pyridin-3-yl]methyl}acetamide] | 101.773%
23 | C=CC(=O)N1CCOC(c2ccc(F)c(C)c2)C1 (stereo not shown) [3-A09, 1-[2-(4-fluoro-3-methylphenyl)morpholin-4-yl]prop-2-en-1-one] | 114.674%

Row | Compound | % of control remaining
24 | Cc1c(C#N)c(NC(=O)CCl)n(C2CCCCC2)c1C [4-N18, 2-chloro-N-(3-cyano-1-cyclohexyl-4,5-dimethyl-1H-pyrrol-2-yl)acetamide] | 106.276%
25 | C=CC(=O)N(CC)CC(=O)N1CCn2c(nc(C)c2C)C1 [2-B18, N-(2-{2,3-dimethyl-5H,6H,7H,8H-imidazo[1,2-a]pyrazin-7-yl}-2-oxoethyl)-N-ethylprop-2-enamide] | 95.4453%
26 | O=C(CCl)NC1CCN(C(=O)c2ccccc2)C1 (stereo not shown) [7-P06, N-(1-benzoylpyrrolidin-3-yl)-2-chloroacetamide] | 95.1594%
27 | COc1ccc(CC2CCN2C(=O)C(C)Cl)cc1 (stereo not shown) [5-O22, 2-chloro-1-{2-[(4-methoxyphenyl)methyl]azetidin-1-yl}propan-1-one] | 97.0054%
28 | CN1C=CC(=C(C#N)C(=O)CCl)C=C1 [10-G21, 4-chloro-2-(1-methyl-1,4-dihydropyridin-4-ylidene)-3-oxobutanenitrile] | 95.8504%
29 | C=CC(=O)NCCC(=O)N1CCOC(c2nc(C)cs2)C1 (stereo not shown) [3-K04, N-{3-[2-(4-methyl-1,3-thiazol-2-yl)morpholin-4-yl]-3-oxopropyl}prop-2-enamide] | 102.852%
30 | C=CC(=O)Nc1ccc(F)c(-n2nnnc2C)c1 [2-K11, N-[4-fluoro-3-(5-methyl-1H-1,2,3,4-tetrazol-1-yl)phenyl]prop-2-enamide] | 90.3503%
31 | C=CC(=O)NCC1CCc2nnc(C(C)C)n2C1 (stereo not shown) [2-J03, N-{[3-(propan-2-yl)-5H,6H,7H,8H-[1,2,4]triazolo[4,3-a]pyridin-6-yl]methyl}prop-2-enamide] | 105.944%
32 | C=CC(=O)N1CCOC(Cn2nc(C)cc2C)C1 (stereo not shown) [3-C13, 1-{2-[(3,5-dimethyl-1H-pyrazol-1-yl)methyl]morpholin-4-yl}prop-2-en-1-one] | 99.5001%
33 | CC(NC(=O)CCl)C(=O)N1CCCCC1C (stereo not shown) [5-M06, 2-chloro-N-[1-(2-methylpiperidin-1-yl)-1-oxopropan-2-yl]acetamide] | 96.6691%
34 | C=CC(=O)N1CCC(n2ncc3ccccc32)CC1 [1-K22, 1-[4-(1H-indazol-1-yl)piperidin-1-yl]prop-2-en-1-one] | 95.6652%
35 | N#CC(=Cc1ccccc1Cl)C(=O)NCc1ccccc1 [9-F13, N-benzyl-3-(2-chlorophenyl)-2-cyanoprop-2-enamide] | 84.3644%
36 | N#CC(=Cc1ccc2c(c1)OCCO2)C(=O)NC1CCCCC1 [9-J19, 2-cyano-N-cyclohexyl-3-(2,3-dihydro-1,4-benzodioxin-6-yl)prop-2-enamide] | 91.8423%
37 | O=C(CCl)NC1CCCc2cn(C3CCCC3)nc21 (stereo not shown) [5-O09, 2-chloro-N-(2-cyclopentyl-4,5,6,7-tetrahydro-2H-indazol-7-yl)acetamide] | 101.713%
38 | C=CC(=O)N1CCC(C(=O)NCc2ccc(OC)cn2)CC1 [3-O19, N-[(5-methoxypyridin-2-yl)methyl]-1-(prop-2-enoyl)piperidine-4-carboxamide] | 106.558%
39 | O=C(O)C(c1ccccc1)N1C(=O)C=CC1=O (stereo not shown) [10-E21, 2-(2,5-dioxo-2,5-dihydro-1H-pyrrol-1-yl)-2-phenylacetic acid] | 103.487%
40 | CC(Cl)C(=O)NCc1ncnn1C(C)C (stereo not shown) [5-P15, 2-chloro-N-{[1-(propan-2-yl)-1H-1,2,4-triazol-5-yl]methyl}propanamide] | 104.739%
41 | CC(Cl)C(=O)NC(C)(C)c1cccc(Cl)c1F (stereo not shown) [7-E15, 2-chloro-N-[2-(3-chloro-2-fluorophenyl)propan-2-yl]propanamide] | 65.4221%
42 | C=CC(=O)N1CCC(c2nc(C(=O)O)cs2)CC1 [1-O21, 2-[1-(prop-2-enoyl)piperidin-4-yl]-1,3-thiazole-4-carboxylic acid] | 93.2735%
43 | NC(=O)c1csc(C(=O)CCl)c1 [10-L06, 5-(2-chloroacetyl)thiophene-3-carboxamide] | 54.549%
44 | CC(Cl)C(=O)N1CCC(Oc2ccc(C3CC3)cn2)C1 (stereo not shown) [7-A18, 2-chloro-1-{3-[(5-cyclopropylpyridin-2-yl)oxy]pyrrolidin-1-yl}propan-1-one] | 73.0877%
45 | CC(Cl)C(=O)N1CC(S(=O)(=O)Nc2ccccc2)C1 (stereo not shown) [7-G05, 1-(2-chloropropanoyl)-N-phenylazetidine-3-sulfonamide] | 85.9078%
46 | Cc1cccc(NC(=O)C(C)Cl)c1 (stereo not shown) [5-P10, 2-chloro-N-(3-methylphenyl)propanamide] | 105.075%
